Measured values published in paper PMC12040169 (PLOS Biology, 2025).
The list shows a part of the results.

What follows are compounds tested on T1, C. trachomatis L2/434/Bu expressing GFP (CTL2-GFP). Conditions: total inclusion area; 28.5 h, 10 µM; inhibitor.
T1 construct: L2/434/Bu GFP intracellular growth in HeLa cells
Design: species or system HeLa; C. trachomatis total inclusion area by high-content imaging, normalised to DMSO
How it was run: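 High-content imaging followed the bulk GFP/resorufin measurement: fixed, Hoechst-stained cells were scored for GFP inclusions and host nuclei per well. Total inclusion area and count served as growth proxies, nuclei number as the viability proxy. MIC calculation matched the bulk assay.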

Structure (SMILES)	% of control remaining
Cc1ccc(C2(CN3CCN(Cc4cnc(C)n4C)CC3)CC2)cc1 [CBK282469]	103.675
O=C(CCc1ccco1)N1CCCC1c1nc2ccccc2[nH]1 (centres unmarked) [CBK283767]	80.4806
CCCC/C=C/c1cn2ccnc2c(Nc2cccc(OCC(=O)N(C)C)c2)n1 [CBK066185]	107.971
Cc1cc(C)n(CCCC(=O)N2CCC3(CC2)CC(=O)N(C)C3)n1 [CBK306905]	46.8457
CC(=O)NC1(c2ccc(F)cc2)CCN(C(=O)C(C)C)CC1 [CBK283491]	86.8219
COc1ccccc1-c1nccnc1NCCCO [CBK088971]	167.398
CC(C)(C)c1ccc(C(=O)NC(=S)Nc2ccc(O)c(-c3nc4cc(Cl)ccc4o3)c2)cc1 [CBK264169]	121.259
CC1CCC(C(=O)NC(Cc2ccccc2)C(=O)O)CC1 (centres unmarked) [CBK287080]	99.4622
COC(=O)CO[C@@H]1CO[C@H]2[C@@H]1OC[C@@H]2NC(=S)Nc1ccccc1 [CBK289459]	113.586
COc1ccc(Cl)cc1NS(=O)(=O)N1CCOCC1 [CBK269937]	88.2754
CS(=O)(=O)c1ccc(-c2ccc(CN3CCN(C(=O)Cc4ccc(F)cc4F)CC3)cn2)cc1 [CBK162618T]	55.9572
CCc1ccccc1S(=O)(=O)N1CCOC(c2cnn(CC)c2)C1 (centres unmarked) [CBK305421]	41.5776
Cc1cccnc1NC(=O)C(C)Oc1ccccc1 (centres unmarked) [CBK268643]	130.511
CC(OC(=O)c1ccc2c(c1)C(=O)N(c1ccc(Cl)cc1)C2=O)C(=O)c1ccccc1 (centres unmarked) [CBK156661]	79.9371
CCC(CN1CCOCC1)NC(=O)Cc1coc2cc(C)ccc12 (centres unmarked) [CBK282791]	64.164
COCc1cc(=O)n2ncc(-c3ccccc3)c2[nH]1 [CBK288168]	90.7819
Cc1nn(C)c(C)c1OCC(=O)Nc1sc2c(c1C#N)CCC2 [CBK306374]	3.897
Cc1ccccc1C(c1cnccn1)N(C)C(=O)C1CCN(S(=O)(=O)c2cn(C)cn2)CC1 (centres unmarked) [CBK060264]	121.644
FC(F)(F)c1cc(-c2ccccc2)nc2onc(OCCN3CCOCC3)c12 [CBK269392]	95.242
Cc1cnn(-c2cc(N3CCC(n4cc(C5CC5)nn4)CC3)ncn2)c1 [CBK306721]	60.2341
COc1ccc(-c2cnn3c(N)c4c(nc23)CCC4)cc1 [CBK287987]	65.8228
CN(Cc1nncn1C)C(=O)c1cnc2c(c1)c(C(C)(C)C)nn2C [CBK304154]	80.3074
COc1ccc(CN(CCCN2CCOCC2)C(=O)NCCCN2CCCC2=O)cc1OC [CBK159180]	45.8436
CC(C)CCNC(=O)N(CCc1ccccc1)Cc1ccccc1 [CBK155351]	100.483
COc1ccc(C(=O)Nc2nnc[nH]2)cc1 [CBK025569]	130.058
CCN(CC)C(=O)c1ccc(NS(=O)(=O)c2cc(F)c(Br)cc2F)cc1 [CBK034388]	86.0101
COc1ccc(CN(Cc2ccc(OC)cc2)Cc2ccc(S(=O)(=O)N3CCOC3=O)cc2)cc1 [CBK014818]	116.759

Structure (SMILES)	% of control remaining
Cc1ccc(S(=O)(=O)N2CC(=O)NC2=S)cc1 [CBK023293]	104.264
CCCc1[nH]nc(O)c1CCc1c(Cl)cccc1Cl [CBK081403]	87.7248
CCCCc1ccc(NS(=O)(=O)c2ccc(C)c(C(=O)O)c2)cc1 [CBK296111]	110.341
COc1ccccc1CN(CN1C(=O)c2ccccc2C1=O)CN1C(=O)c2ccccc2C1=O [CBK265039]	104.538
C=CCOc1ccc(Cl)cc1CNc1cccc(C(=O)O)c1 [CBK078460]	100.429
Cc1c(CN(C)C(=O)c2cccc(NC(=O)C3CCCO3)c2)cnn1C (centres unmarked) [CBK305416]	40.2524
CSc1nsc(SCC(=O)c2ccc(NC(C)=O)cc2)n1 [CBK268755]	106.307
CC(C(=O)Nc1cccc(F)c1)N1CCN(Cc2cccnc2)CC1 (centres unmarked) [CBK305408]	36.675
COc1cc(CN2CCN(C(=O)c3cccc(Cl)c3)CC2)cc(OC)c1OC [CBK074530]	79.4695
OCCCN1CCCN(c2ccnc(OCCN3CCOCC3)n2)CC1 [CBK083808]	78.8713
CCCNC(C)C(=O)Nc1c(C)csc1C(=O)O (centres unmarked) [CBK287064]	103.395
Cn1c(=O)c2c(nc(SCC(=O)O)n2C)n(C)c1=O [CBK262942]	103.555
CC(C)NC(=O)N1CCN2C(=O)N(c3ccccc3)C(=O)[C@@H]2C1 [CBK289579]	110.31
COc1cccc2sc(Nc3nc(-c4cccs4)cs3)nc12 [CBK287469]	69.2392
CCN(CCO)c1ccc(Nc2nc(-c3ccc(F)c(Cl)c3)cn3ccnc23)cc1 [CBK038042]	118.995
O=C(CN(c1ccc(I)cc1)S(=O)(=O)c1ccccc1)NCC1CCCO1 (centres unmarked) [CBK266278]	125.598
O=C(c1ncoc1-c1ccc(F)cc1)N1CCSCC1 [CBK282380]	81.9092
O=C1N=C(NC23CC4CC(CC(C4)C2)C3)OC1c1ccccc1 (centres unmarked) [CBK105263]	58.3113
COc1cc(S(=O)(=O)NC2CC(C)(C)NC(C)(C)C2)ccc1Br [CBK267908]	95.1483
OC[C@H]1O[C@@H](n2cnc3c(Cl)ncnc32)C[C@H]1O [CBK201167]	102.391
O=C(O)CSCC(=O)N1CCN(c2ccc(F)cc2)CC1 [CBK057269]	100.198
CC(O)CN(Cc1ccc(-c2ccccc2)cc1)Cc1ccc2c(c1)OCO2 (centres unmarked) [CBK286450]	102.069
CCCC(=O)c1ccc(S(=O)(=O)N2CCCN(Cc3cc(Br)cs3)CC2)cc1 [CBK062896]	69.5135
O=S(=O)(Nc1cc(OC2CCCNC2)c2occc2c1)c1cc(F)ccc1F (centres unmarked) [CBK073996C]	43.035
CCCCCNC(=O)NCCC1=CCCCC1 [CBK043796]	97.8242
O=C(O)[C@H]1CN(C(=O)c2ccco2)C[C@@H]1c1ccccc1F [CBK283820]	89.8993
CC(Cn1cc(Cl)cn1)C(=O)NC(C)C1CC2CCC1C2 (centres unmarked) [CBK281650]	77.2622

Structure (SMILES)	% of control remaining
COc1ccccc1-c1cnc(N)c(N[C@H](C)c2ccccc2)n1 [CBK063705]	138.136
O=C(c1cc(O)nc2ccccc12)N1CCN(S(=O)(=O)N2CCCC2)CC1 [CBK297898]	89.9942
COc1ccc(CN(/N=N/c2nonc2C)c2nonc2C)cc1[N+](=O)[O-] [CBK262386]	100.662
CCCCC(=O)NCCc1ccc(S(N)(=O)=O)cc1 [CBK288360]	65.1676
Cc1cc(C(=O)C(C)Oc2ccc(-c3nnco3)cc2)c(C)n1-c1ccccc1 (centres unmarked) [CBK297104]	29.9615
Cn1cc(CNS(=O)(=O)c2ccc(Br)c(F)c2)cn1 [CBK305539]	77.2998
O=C(c1ccc(-c2cnc3[nH]c(=O)n(C4CCCCC4)c3n2)cc1)N1CCOCC1 [CBK064566]	135.334
CN(CCCc1cnn(C)c1)c1nc(N)nc2c1CCCC2 [CBK306766]	65.9901
CCOc1ccc(S(=O)(=O)N2CCN(Cc3cc(C(=O)OC)n(C)c3)CC2)c2cccnc12 [CBK062796]	73.7162
Cc1nn(Cc2ccc(Cl)cc2)c(C)c1C(N)C(=O)O (centres unmarked) [CBK286661]	73.9007
O=C(NC1CC1)C1CCN(Cn2nnc3ccccc3c2=S)CC1 [CBK306342]	68.2152
CSCCC(=O)NCc1c(-c2ccccc2)noc1C [CBK144092]	86.4731
CCOC(=O)NC(=O)c1cn(N2CCOCC2)c(=O)[nH]c1=O [CBK004845]	64.4819
CC(C(=O)Nc1ccc(S(N)(=O)=O)cc1)N1CCCc2ccccc21 (centres unmarked) [CBK306108]	60.7893
Cc1ccccc1-c1nnc(SC(C)C)n1CCNCCO [CBK200084T]	133.975
Cc1cc(N2CCCC(N(C)S(=O)(=O)c3cccc(F)c3)CC2)nc(C)n1 (centres unmarked) [CBK285935]	96.4892
O=S(=O)(N1CCCCCC1)N1CCN(S(=O)(=O)N2CCOCC2)CC1 [CBK269152]	117.324
CC(C)(C)NC(=O)Cn1c(=O)n(Cc2cccs2)c2ncccc21 [CBK283844]	58.933
Cc1nc(=O)c(-c2ccccc2)c(C)n1-c1cccc(C(=O)O)c1 [CBK286965]	43.3667
COc1ccccc1NC(=O)c1c(NC(=O)c2cccs2)sc2c1CCC(C(C)(C)C)C2 (centres unmarked) [CBK264123]	114.192
Cc1nn(CCC#N)c(C)c1[C@@H]1C=C[C@@H](NS(=O)(=O)c2ccccc2)C1 [CBK288805]	102.353
COc1cccc(C(=O)/C=C\Nc2ccc(S(=O)(=O)Nc3onc(C)c3C)cc2)c1 [CBK264206]	30.014
COc1ccc(C(=O)Nc2ccc(C(C)=O)cc2)cc1[N+](=O)[O-] [CBK262457]	95.1626
CC(=O)Nc1cccc(NC(=O)N(CCC#N)C2CCCCC2)c1 [CBK156367]	94.1776
Cc1ccccc1C1(O)CCN(C(=O)C(c2cccs2)c2cccs2)CC1 [CBK286483]	123.369
O=C(NCCc1c[nH]c2ccccc12)NC(=O)C1CCNCC1 [CBK051094]	99.0777
